Assay results from PMC4336329 (PLoS ONE, 2015).
In all, about 310,000 compounds went through this assay and about 2,200 (0.71%) showed an effect of 50% or more. Effects have a minus sign here. The list shows a part of the results.

target: human ether-à-go-go-related gene (hERG) potassium channel (human, UniProt Q12809); assay: primary screen, population patch clamp on CHO cells stably expressing hERG
Sequence (Q12809 whole entry, looked up): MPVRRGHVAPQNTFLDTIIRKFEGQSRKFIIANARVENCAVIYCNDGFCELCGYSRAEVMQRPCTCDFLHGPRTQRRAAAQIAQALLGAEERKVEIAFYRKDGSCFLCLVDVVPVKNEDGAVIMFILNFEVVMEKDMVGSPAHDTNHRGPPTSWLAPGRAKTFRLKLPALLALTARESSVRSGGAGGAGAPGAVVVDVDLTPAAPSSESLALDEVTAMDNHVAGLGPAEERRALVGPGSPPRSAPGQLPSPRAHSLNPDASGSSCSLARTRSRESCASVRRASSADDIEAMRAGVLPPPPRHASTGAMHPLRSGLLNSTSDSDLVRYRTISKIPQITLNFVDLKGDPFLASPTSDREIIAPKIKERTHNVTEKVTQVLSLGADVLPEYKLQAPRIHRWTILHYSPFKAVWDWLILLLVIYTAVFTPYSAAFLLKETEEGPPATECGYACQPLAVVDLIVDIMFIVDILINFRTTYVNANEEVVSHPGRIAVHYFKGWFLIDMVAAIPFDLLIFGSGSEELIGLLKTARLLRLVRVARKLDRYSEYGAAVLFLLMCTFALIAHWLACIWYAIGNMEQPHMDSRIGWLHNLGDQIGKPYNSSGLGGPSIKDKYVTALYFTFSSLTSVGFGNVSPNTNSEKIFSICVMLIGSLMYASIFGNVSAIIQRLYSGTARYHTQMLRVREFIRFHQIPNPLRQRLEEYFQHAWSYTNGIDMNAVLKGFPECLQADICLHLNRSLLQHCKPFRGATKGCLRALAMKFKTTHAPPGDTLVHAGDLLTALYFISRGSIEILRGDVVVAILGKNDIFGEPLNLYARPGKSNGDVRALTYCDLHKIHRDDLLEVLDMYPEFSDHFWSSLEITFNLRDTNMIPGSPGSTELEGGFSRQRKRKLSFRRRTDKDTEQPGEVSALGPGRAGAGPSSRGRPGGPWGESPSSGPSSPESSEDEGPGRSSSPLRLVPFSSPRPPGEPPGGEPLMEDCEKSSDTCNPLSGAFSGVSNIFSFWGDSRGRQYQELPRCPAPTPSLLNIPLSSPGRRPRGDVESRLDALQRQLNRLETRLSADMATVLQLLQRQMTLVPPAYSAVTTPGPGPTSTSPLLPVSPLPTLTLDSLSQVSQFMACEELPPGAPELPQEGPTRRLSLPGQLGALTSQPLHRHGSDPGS

| SMILES | hERG current change (%, negative = inhibition) at 1uM |
| --- | --- |
| Cc1cccc(-n2ncc3c(NCCN4CCOCC4)ncnc32)c1 | -4.67% |
| COC(=O)c1ccc(S(=O)(=O)N(Cc2ccccc2)Cc2ccccc2)n1C | 1.95% |
| O=C(N/N=C/c1ccccc1F)c1cccc2ccccc12 | 9.02% |
| CC(C)NC(=O)C(c1ccc(F)cc1)N(C(=O)CCC(=O)Nc1ccccn1)c1cccc(F)c1 (centres unmarked) | 10.9% |
| CC1(C)CC(=O)C2=C(C1)N1C(=C(C#N)C2c2ccc(Cl)cc2)N=C(N)c2ccccc21 (centres unmarked) | 0.0227% |
| O=C1[C@@H]2C(c3cccnc3)=NO[C@@H]2C(=O)N1c1ccc2ccccc2c1 | 14% |
| O=C(NC1CCN(Cc2ccccc2)CC1)c1ccc(Oc2cc(Cl)cc(Cl)c2)o1 | 9.24% |
| CC(C)Cc1nnc(NC(=O)CCC(=O)N2CCN(c3ccccc3)CC2)s1 | 9.93% |
| Cn1nc(C(=O)Nc2cccc(Cl)c2)cc1C(=O)Nc1cccc(Cl)c1 | 15.3% |
| C=CCNC(=O)C(=O)NN=C1CCN(C)CC1 | 5.04% |
| CC(=O)Nc1ccc(N=c2cc([N+](=O)[O-])cc(Cl)n2O)cc1 | 4.56% |
| O=C(C[n+]1cccc(CNC(=O)c2ccc(OC(F)F)cc2)c1)Nc1ccccc1Cl.[Cl-] | 3.85% |
| CCCCNC(=O)CCC(=O)Nc1ccc2nc(N3CCC(C)CC3)cc(C)c2c1 | 2.82% |
| O=c1nccc(SCc2ccc(Cl)cc2Cl)[nH]1 | 7.61% |
| CC(C)CNc1nc2c(c(=O)n(C)c(=O)n2C)n1Cc1cccc(Br)c1 | 7.85% |
| NC(=O)C1CCN(C(=S)NCCc2ccccc2)CC1 | 6.51% |
| Cc1ccc(N2C(=O)c3ccc(N)cc3C2=O)cc1 | 15.8% |
| COc1ccc(NC(=O)c2ccc3c(=O)n(-c4ccc(OC)cc4OC)c(=S)[nH]c3c2)c(OC)c1 | 4.14% |
| C#CCSc1n[nH]c(-c2ccco2)n1 | 12.6% |

| SMILES | hERG current change (%, negative = inhibition) at 1uM |
| --- | --- |
| O=C(CN(Cc1ccco1)C(=O)CCC(=O)Nc1ccccn1)NCCc1ccccc1 | 15.2% |
| CN1CCN(C(=O)C2=C[C@@H](c3ccc(C(F)(F)F)cc3)C[C@@H](OCCCCO)O2)CC1 | 6.43% |
| Cc1cc(C)c(/C=N/NC(=O)c2nnn(-c3nonc3N)c2CN2CCC(C)CC2)c(C)c1 | 14.1% |
| CC(C)(C)c1csc(NC(=O)C2COc3ccccc3O2)n1 (centres unmarked) | 8.88% |
| Cc1ccc(C(=O)O)cc1-c1ccc(/C=C2/NC(=O)N(c3ccccc3)C2=O)o1 | 4.13% |
| COc1ccc(NC(=O)C2CC(=O)N(Cc3ccco3)C2)cc1Cl (centres unmarked) | 9.99% |
| COc1cc(NC(=S)NCCc2c[nH]c3ccccc23)c(OC)cc1Cl | 10.9% |
| O=C(CSc1nnc(-c2ccncc2)n1CCc1ccccc1)NCc1ccccc1 | -31.6% |
| O=C(c1ccc(-n2cnnn2)cc1)N1CCCCC1 | -8.12% |
| CC(C)C(=O)Nc1c2c(nc3c1CCC3)CCCC2 | 9.87% |
| Cc1n[nH]c(=O)nc1NCCc1ccccc1 | 21.9% |
| Cc1ccccc1-c1nsc(SCC(=O)c2ccc(Cl)cc2)n1 | 9.33% |
| CCN(CC)S(=O)(=O)c1ccc(N2CCOCC2)c(NC(=S)NC(=O)c2ccco2)c1 | -6.76% |
| COc1cccc2sc(NNC(=O)C3=COCCO3)nc12 | 5.6% |
| CCC1Oc2ccc(C)cc2N(CC(=O)NCCc2ccc(OC)c(OC)c2)C1=O (centres unmarked) | -3.1% |
| O=C(Cc1csc(N2CCOCC2)n1)N/N=C/c1cccc(O)c1 | -2.27% |
| C/C(CC(=O)NCCN1CCOCC1)=N\NC(=O)c1ccncc1 | 14% |
| O=C(NCc1ccc(Cl)cc1)c1ccncc1 | 8.5% |
| CCC(C)NC(=O)C1CCN(S(=O)(=O)N2CCC3(CC2)OCCO3)CC1 (centres unmarked) | 17.1% |

| SMILES | hERG current change (%, negative = inhibition) at 1uM |
| --- | --- |
| COc1cc2[nH]c(C(=O)N(C)Cc3ccccc3)cc2c(OC)c1OC | 4.9% |
| Cc1ccc(NC(=S)N(C)Cc2cn(C)c3ccccc23)cc1 | 7.47% |
| Cn1c(=O)c2c(C(=O)O)cc(-c3ccccc3)nc2n(Cc2ccccc2)c1=O | 16.2% |
| C/C(=N\N1CCN(C)CC1)c1ccc(OC(F)F)cc1 | 5.48% |
| COc1ccc(CN(C)C(=O)Cc2ccc(OC)c(S(=O)(=O)N3CCOCC3)c2)cc1OC | 6.69% |
| CC1CC(C)CN(S(=O)(=O)N2CCC(C(=O)NCCC3=CCCCC3)CC2)C1 (centres unmarked) | 8.36% |
| Cc1cc(S(=O)(=O)Nc2cccc([N+](=O)[O-])c2)c(C)s1 | 9.94% |
| C=CCN(CC=C)C(=S)NC(=O)/C=C/c1ccc(OC)cc1 | 3.77% |
| Cc1cc(C)cc(C(=O)NC(=S)Nc2cccnc2)c1 | -21.1% |
| S=c1[nH]nc(-c2cc(-c3ccsc3)n[nH]2)n1-c1ccccc1 | 4.95% |
| CCc1nnc(NC(=O)CSc2ccc(-c3cccs3)nn2)s1 | 5.48% |
| COCCCn1c(SCC(=O)N2CCOCC2)nc2cc(Cl)ccc2c1=O | -1.66% |
| Cc1cc2c(cc(C(=O)OC(C(=O)NCc3ccco3)C(C)C)n2C)o1 (centres unmarked) | 2.13% |
| COC(=O)c1ccc(OC)c(CSc2nnc(-c3ccc(C(C)(C)C)cc3)o2)c1 | 14.6% |
| CCC(Sc1nc2ccccc2[nH]1)C(=O)Nc1cc(C)on1 (centres unmarked) | 11.2% |
| CC(=O)c1cccc(S(=O)(=O)NCCCN2CCOCC2)c1.Cl | -0.0465% |
| Cc1cccc(Cn2nc(C)cc2NC(=O)Cn2cc([N+](=O)[O-])cn2)c1 | 4.15% |
| CC(C)CC(=O)O/N=C1\C(=O)N(Cc2ccc(Cl)cc2)c2ccc([N+](=O)[O-])cc21 | -6.64% |
